Reference: the supplement of paper PMC7826260
The other results are listed elsewhere or left out. Each Rep nickase domain was tested in vitro on the same pool of single strands at 3 µM enzyme and 37 °C for 1 h; the strands have 90 letters, of which the middle is given. The score is log2 (uncut reads / reads without enzyme); strong cutting gives strongly negative numbers. There is no active / inactive call. Shares of all reads are compared; values above 0 arise when much of the pool is cut.

Assays:
Assay in all cases: uncleaved DNA left, log2 of reads against the no-enzyme library (log2 ratio); higher = less cleavage (more negative = more Rep cleavage of the k-mer); sequences stand for … in CTCGTCCG…ACCGGAGA
[1] = system: T1, Rep nickase domain of Muscovy duck circovirus
T1 sequence (residues 1-111, tag not shown): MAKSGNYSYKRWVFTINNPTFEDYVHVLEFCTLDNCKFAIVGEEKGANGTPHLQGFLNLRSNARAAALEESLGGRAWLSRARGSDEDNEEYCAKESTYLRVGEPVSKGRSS
Method: (§1)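 A pool of 90-nt single-stranded DNAs with seven random bases just before the constant AC of the nick site (name = the seven bases) was cut by 3 µM recombinant His6-SUMO-tagged Rep nickase domain (300 nM DNA, 50 mM HEPES pH 8.0, 50 mM NaCl, 1 mM MnCl2, 1 h, 37 °C, three replicates). Uncut DNA was amplified and sequenced.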

[2] = system: T2, Rep nickase domain of banana bunchy top virus
T2 sequence (residues 1-94, tag not shown): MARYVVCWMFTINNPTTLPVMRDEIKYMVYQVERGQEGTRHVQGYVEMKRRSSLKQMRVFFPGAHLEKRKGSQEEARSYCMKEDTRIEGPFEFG
Method: as §1

[3] = system: T3, Rep nickase domain of cabbage leaf curl virus
T3 sequence (residues 1-116, tag not shown): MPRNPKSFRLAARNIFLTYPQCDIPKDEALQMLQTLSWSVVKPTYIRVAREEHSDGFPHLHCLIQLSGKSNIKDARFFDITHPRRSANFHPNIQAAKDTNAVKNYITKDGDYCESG
Method: as §1

[4] = system: T4, Rep nickase domain of chickpea chlorotic dwarf virus
T4 sequence (residues 1-124, tag not shown): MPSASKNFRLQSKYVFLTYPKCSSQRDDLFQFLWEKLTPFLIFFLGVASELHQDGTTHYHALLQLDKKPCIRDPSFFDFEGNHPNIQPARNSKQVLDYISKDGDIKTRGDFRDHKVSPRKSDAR
Method: as §1

[5] = system: T5, Rep nickase domain of faba bean necrotic yellows virus
T5 sequence (residues 1-98, tag not shown): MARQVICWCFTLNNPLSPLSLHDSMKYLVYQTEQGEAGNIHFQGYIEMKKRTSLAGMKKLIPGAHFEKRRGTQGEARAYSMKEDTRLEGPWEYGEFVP
Method: as §1

[6] = system: T6, Rep nickase domain of maize striate mosaic virus
T6 sequence (residues 1-117, tag not shown): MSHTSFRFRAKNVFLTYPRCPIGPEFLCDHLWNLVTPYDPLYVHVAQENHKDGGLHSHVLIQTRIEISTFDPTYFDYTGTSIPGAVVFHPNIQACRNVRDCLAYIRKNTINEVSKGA
Method: as §1

[7] = system: T7, Rep nickase domain of porcine circovirus 2
T7 sequence (residues 2-116, tag not shown): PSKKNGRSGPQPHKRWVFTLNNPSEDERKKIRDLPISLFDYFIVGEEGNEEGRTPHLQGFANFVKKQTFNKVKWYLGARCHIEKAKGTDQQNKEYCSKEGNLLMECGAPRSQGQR
Method: as §1

[8] = system: T8, Rep nickase domain of tomato golden mosaic virus
T8 sequence (residues 1-124, tag not shown): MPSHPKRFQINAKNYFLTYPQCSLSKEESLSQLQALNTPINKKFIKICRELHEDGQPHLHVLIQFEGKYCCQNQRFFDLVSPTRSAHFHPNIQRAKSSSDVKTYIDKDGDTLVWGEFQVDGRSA
Method: as §1

[9] = system: T9, Rep nickase domain of tomato yellow leaf curl virus
T9 sequence (residues 1-136, tag not shown): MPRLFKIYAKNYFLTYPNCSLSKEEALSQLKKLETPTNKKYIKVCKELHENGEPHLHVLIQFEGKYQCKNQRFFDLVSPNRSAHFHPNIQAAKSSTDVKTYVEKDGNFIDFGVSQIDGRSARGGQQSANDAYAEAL
Method: as §1

[10] = system: T10, Rep nickase domain of wheat dwarf virus
T10 sequence (residues 1-137, tag not shown): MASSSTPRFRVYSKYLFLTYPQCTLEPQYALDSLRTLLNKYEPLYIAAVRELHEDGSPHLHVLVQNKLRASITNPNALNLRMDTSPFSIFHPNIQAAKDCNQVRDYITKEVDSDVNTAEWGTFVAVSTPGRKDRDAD
Method: as §1

Row | Sequence | uncleaved DNA left (log2) [1] | uncleaved DNA left (log2) [2] | uncleaved DNA left (log2) [3] | uncleaved DNA left (log2) [4] | uncleaved DNA left (log2) [5] | uncleaved DNA left (log2) [6] | uncleaved DNA left (log2) [7] | uncleaved DNA left (log2) [8] | uncleaved DNA left (log2) [9] | uncleaved DNA left (log2) [10]
1 | AGTAATG | 0.0209 | 0.0978 | -0.14 | 0.503 | 0.114 | 0.928 | 0.15 | 0.223 | -0.0187 | 0.0968
2 | GACGGGA | 0.0331 | 0.0762 | 0.491 | 0.954 | 0.0677 | 1.33 | 0.0572 | 0.155 | 0.0629 | 0.0398
3 | AAGACAC | 0.00164 | 0.00278 | 0.169 | 0.28 | -0.143 | 0.293 | -0.071 | -0.000669 | -0.0734 | 0.132
4 | CTCAATT | -0.215 | -0.16 | -0.313 | -2.43 | -0.283 | -0.719 | -0.594 | -0.248 | -0.124 | -0.271
5 | GTCTCTA | 0.114 | 0.0328 | 0.358 | 0.775 | 0.0168 | 1.77 | 0.0988 | 0.188 | 0.0577 | 0.111
6 | CAGGCAA | 0.0173 | -0.0841 | 0.045 | 0.213 | -0.0978 | 0.0363 | 0.0135 | 0.0567 | -0.0527 | 0.000972
7 | CCATCAG | 0.0479 | 0.134 | -0.399 | 0.593 | 0.0512 | -0.0293 | 0.319 | 0.11 | 0.216 | -0.0152
8 | GAGGCAT | -0.0104 | 0.1 | 0.814 | 2.11 | -0.123 | 2.19 | 0.141 | -0.101 | -0.00157 | 0.156
9 | GTCGTCT | 0.0694 | -0.0341 | 0.299 | 0.534 | -0.109 | 1.44 | -0.0504 | -0.0155 | -0.0054 | -0.0679
10 | ACTGGTC | -0.036 | -0.128 | -0.0596 | 0.249 | -0.00291 | 0.205 | -0.0374 | -0.0179 | -0.237 | -0.0609
11 | AGTTCCG | -0.00911 | -0.0211 | -0.831 | -0.161 | 0.00284 | -1.09 | 0.0671 | -0.117 | -0.0584 | -0.139
12 | GAACCCT | -0.0979 | 0.0398 | 0.0643 | -1.69 | 0.0494 | 0.998 | -0.388 | 0.0425 | 0.188 | 0.0386
13 | CCTCTGG | 0.105 | -0.101 | 0.121 | 0.375 | 0.0448 | -0.351 | 0.117 | 0.0278 | -0.185 | -0.0574
14 | ACGCTCA | 0.0391 | -0.0351 | -0.231 | -1.16 | -0.0531 | -0.521 | 0.0083 | 0.134 | -0.0757 | -0.0483
15 | CCGGAGG | -0.134 | -0.211 | 0.47 | 0.734 | -0.294 | 0.931 | 0.0514 | -0.0298 | -0.19 | -0.13
